{"source": "paper PMC12820563", "about": "“FoxP3 forms a head-to-head dimer in vivo and stabilizes its multimerization on adjacent microsatellites”", "note": "The list shows a part of the results.", "data": [{"biological_target": "T1, MBP-FoxP1dN (Mus musculus, UniProt P58462 326-579)", "T1 sequence": "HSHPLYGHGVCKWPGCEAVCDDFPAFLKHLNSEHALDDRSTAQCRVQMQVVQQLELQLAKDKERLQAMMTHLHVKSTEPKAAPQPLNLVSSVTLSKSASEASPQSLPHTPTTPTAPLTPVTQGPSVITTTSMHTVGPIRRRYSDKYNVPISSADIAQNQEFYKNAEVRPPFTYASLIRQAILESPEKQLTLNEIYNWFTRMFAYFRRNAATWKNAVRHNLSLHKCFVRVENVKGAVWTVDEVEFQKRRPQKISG", "assay": "PD-seq (MBP pull-down with sequencing); 20 mM Tris-HCl pH 7.5, 100 mM NaCl, 1.5 mM MgCl2, 0.4 uM protein, 0.1 uM dsDNA library, 30 min, room temperature, amylose pull-down; high values mean tight binding", "settings": "protein: recombinant; tags: His6-MBP; chain copies: 2; dsDNA, one strand shown", "in_short": "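The N-terminus-lacking fragment of mouse FoxP3 or FoxP1 carried a His6-MBP tag and was expressed in E. coli. At 0.4 µM it was incubated with 0.1 µM Klenow-filled degenerate double-stranded DNA library for 30 min at room temperature in Tris pH 7.5 buffer with NaCl and MgCl2, and complexes were caught on amylose resin, washed three times, released with proteinase K, PCR-barcoded and Illumina-sequenced. Binding is reads-per-million enrichment of pull-down over input with replicates pooled.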", "values": [{"sequence": "GATGATTGTTCTCCCAGCTGATGAATTCTTCAGGTCGAGTAAACAAATTTTCCTAATCTTTCTGTTCAAGCGCCATCTAC", "binding signal": "0.789 RPM ratio (pull-down/input)"}, {"sequence": "GATGATTGTTCTCCCAGCTGATGAATTTCATGGGTCGAGTAAACAAATTTTCCTAATCTTTCTGTTCAAGCGCCATCTAC", "binding signal": "0.803 RPM ratio (pull-down/input)"}, {"sequence": "GATGATTGTTCTCCCAGCTGATGAATTGTCCTTGTCGAGTAAACAAATTTTCCTAATCTTTCTGTTCAAGCGCCATCTAC", "binding signal": "1.07 RPM ratio (pull-down/input)"}, {"sequence": "GATGATTGTTCTCCCAGCTGATGAATTATACCCATCGAGTAAACAAATTTTCCTAATCTTTCTGTTCAAGCGCCATCTAC", "binding signal": "0.975 RPM ratio (pull-down/input)"}, {"sequence": "GATGATTGTTCTCCCAGCTGATGAATTAGCTGGCTCGAGTAAACAAATTTTCCTAATCTTTCTGTTCAAGCGCCATCTAC", "binding signal": "0.774 RPM ratio (pull-down/input)"}, {"sequence": "GATGATTGTTCTCCCAGCTGATGAATTAGGCCAATCGAGTAAACAAATTTTCCTAATCTTTCTGTTCAAGCGCCATCTAC", "binding signal": "0.998 RPM ratio (pull-down/input)"}, {"sequence": "GATGATTGTTCTCCCAGCTGATGAATTAGTTTTGTCGAGTAAACAAATTTTCCTAATCTTTCTGTTCAAGCGCCATCTAC", "binding signal": "1.06 RPM ratio (pull-down/input)"}, {"sequence": "GATGATTGTTCTCCCAGCTGATGAATTAATTGTGTCGAGTAAACAAATTTTCCTAATCTTTCTGTTCAAGCGCCATCTAC", "binding signal": "1.22 RPM ratio (pull-down/input)"}, {"sequence": "GATGATTGTTCTCCCAGCTGATGAATTCACCGGCTCGAGTAAACAAATTTTCCTAATCTTTCTGTTCAAGCGCCATCTAC", "binding signal": "0.823 RPM ratio (pull-down/input)"}, {"sequence": "GATGATTGTTCTCCCAGCTGATGAATTACCGTAGTCGAGTAAACAAATTTTCCTAATCTTTCTGTTCAAGCGCCATCTAC", "binding signal": "0.941 RPM ratio (pull-down/input)"}, {"sequence": "GATGATTGTTCTCCCAGCTGATGAATTTATTTAGTCGAGTAAACAAATTTTCCTAATCTTTCTGTTCAAGCGCCATCTAC", "binding signal": "1.76 RPM ratio (pull-down/input)"}, {"sequence": "GATGATTGTTCTCCCAGCTGATGAATTAAATTACTCGAGTAAACAAATTTTCCTAATCTTTCTGTTCAAGCGCCATCTAC", "binding signal": "0.997 RPM ratio (pull-down/input)"}, {"sequence": "GATGATTGTTCTCCCAGCTGATGAATTCCAGCGCTCGAGTAAACAAATTTTCCTAATCTTTCTGTTCAAGCGCCATCTAC", "binding signal": "0.779 RPM ratio (pull-down/input)"}, {"sequence": "GATGATTGTTCTCCCAGCTGATGAATTTCGCATCTCGAGTAAACAAATTTTCCTAATCTTTCTGTTCAAGCGCCATCTAC", "binding signal": "1.21 RPM ratio (pull-down/input)"}, {"sequence": "GATGATTGTTCTCCCAGCTGATGAATTGTGCCCATCGAGTAAACAAATTTTCCTAATCTTTCTGTTCAAGCGCCATCTAC", "binding signal": "1.06 RPM ratio (pull-down/input)"}, {"sequence": "GATGATTGTTCTCCCAGCTGATGAATTTTAATGCTCGAGTAAACAAATTTTCCTAATCTTTCTGTTCAAGCGCCATCTAC", "binding signal": "1.05 RPM ratio (pull-down/input)"}, {"sequence": "GATGATTGTTCTCCCAGCTGATGAATTATTGGTCTCGAGTAAACAAATTTTCCTAATCTTTCTGTTCAAGCGCCATCTAC", "binding signal": "1.2 RPM ratio (pull-down/input)"}, {"sequence": "GATGATTGTTCTCCCAGCTGATGAATTTAGTTGCTCGAGTAAACAAATTTTCCTAATCTTTCTGTTCAAGCGCCATCTAC", "binding signal": "1.17 RPM ratio (pull-down/input)"}, {"sequence": "GATGATTGTTCTCCCAGCTGATGAATTACAAGGTTCGAGTAAACAAATTTTCCTAATCTTTCTGTTCAAGCGCCATCTAC", "binding signal": "1.09 RPM ratio (pull-down/input)"}, {"sequence": "GATGATTGTTCTCCCAGCTGATGAATTTTCGCTTTCGAGTAAACAAATTTTCCTAATCTTTCTGTTCAAGCGCCATCTAC", "binding signal": "1.08 RPM ratio (pull-down/input)"}, {"sequence": "GATGATTGTTCTCCCAGCTGATGAATTGGGAATCTCGAGTAAACAAATTTTCCTAATCTTTCTGTTCAAGCGCCATCTAC", "binding signal": "0.85 RPM ratio (pull-down/input)"}, {"sequence": "GATGATTGTTCTCCCAGCTGATGAATTTTGCCTGTCGAGTAAACAAATTTTCCTAATCTTTCTGTTCAAGCGCCATCTAC", "binding signal": "0.891 RPM ratio (pull-down/input)"}, {"sequence": "GATGATTGTTCTCCCAGCTGATGAATTCCGAAGTTCGAGTAAACAAATTTTCCTAATCTTTCTGTTCAAGCGCCATCTAC", "binding signal": "0.765 RPM ratio (pull-down/input)"}, {"sequence": "GATGATTGTTCTCCCAGCTGATGAATTTTTCGGGTCGAGTAAACAAATTTTCCTAATCTTTCTGTTCAAGCGCCATCTAC", "binding signal": "0.808 RPM ratio (pull-down/input)"}, {"sequence": "GATGATTGTTCTCCCAGCTGATGAATTTATCTACTCGAGTAAACAAATTTTCCTAATCTTTCTGTTCAAGCGCCATCTAC", "binding signal": "1.07 RPM ratio (pull-down/input)"}, {"sequence": "GATGATTGTTCTCCCAGCTGATGAATTATTGTAATCGAGTAAACAAATTTTCCTAATCTTTCTGTTCAAGCGCCATCTAC", "binding signal": "1.91 RPM ratio (pull-down/input)"}, {"sequence": "GATGATTGTTCTCCCAGCTGATGAATTTCATGGATCGAGTAAACAAATTTTCCTAATCTTTCTGTTCAAGCGCCATCTAC", "binding signal": "0.799 RPM ratio (pull-down/input)"}, {"sequence": "GATGATTGTTCTCCCAGCTGATGAATTAGGTCATTCGAGTAAACAAATTTTCCTAATCTTTCTGTTCAAGCGCCATCTAC", "binding signal": "0.856 RPM ratio (pull-down/input)"}, {"sequence": "GATGATTGTTCTCCCAGCTGATGAATTCCTGTTCTCGAGTAAACAAATTTTCCTAATCTTTCTGTTCAAGCGCCATCTAC", "binding signal": "0.819 RPM ratio (pull-down/input)"}, {"sequence": "GATGATTGTTCTCCCAGCTGATGAATTCGCGATCTCGAGTAAACAAATTTTCCTAATCTTTCTGTTCAAGCGCCATCTAC", "binding signal": "0.825 RPM ratio (pull-down/input)"}, {"sequence": "GATGATTGTTCTCCCAGCTGATGAATTTGCTGCGTCGAGTAAACAAATTTTCCTAATCTTTCTGTTCAAGCGCCATCTAC", "binding signal": "1 RPM ratio (pull-down/input)"}, {"sequence": "GATGATTGTTCTCCCAGCTGATGAATTTCATGTGTCGAGTAAACAAATTTTCCTAATCTTTCTGTTCAAGCGCCATCTAC", "binding signal": "0.922 RPM ratio (pull-down/input)"}]}]}
